Measurements reported in paper PMC8096781.
No constants are given. Whether binding was seen depends on the method and setting. Binding seen in cells or lysates may run through a third protein. Sequences can lack the tags named with a protein.

Biological target: T1, Flag-FOXM1C (overexpressed in HeLa cells), Q08050
T1 chain: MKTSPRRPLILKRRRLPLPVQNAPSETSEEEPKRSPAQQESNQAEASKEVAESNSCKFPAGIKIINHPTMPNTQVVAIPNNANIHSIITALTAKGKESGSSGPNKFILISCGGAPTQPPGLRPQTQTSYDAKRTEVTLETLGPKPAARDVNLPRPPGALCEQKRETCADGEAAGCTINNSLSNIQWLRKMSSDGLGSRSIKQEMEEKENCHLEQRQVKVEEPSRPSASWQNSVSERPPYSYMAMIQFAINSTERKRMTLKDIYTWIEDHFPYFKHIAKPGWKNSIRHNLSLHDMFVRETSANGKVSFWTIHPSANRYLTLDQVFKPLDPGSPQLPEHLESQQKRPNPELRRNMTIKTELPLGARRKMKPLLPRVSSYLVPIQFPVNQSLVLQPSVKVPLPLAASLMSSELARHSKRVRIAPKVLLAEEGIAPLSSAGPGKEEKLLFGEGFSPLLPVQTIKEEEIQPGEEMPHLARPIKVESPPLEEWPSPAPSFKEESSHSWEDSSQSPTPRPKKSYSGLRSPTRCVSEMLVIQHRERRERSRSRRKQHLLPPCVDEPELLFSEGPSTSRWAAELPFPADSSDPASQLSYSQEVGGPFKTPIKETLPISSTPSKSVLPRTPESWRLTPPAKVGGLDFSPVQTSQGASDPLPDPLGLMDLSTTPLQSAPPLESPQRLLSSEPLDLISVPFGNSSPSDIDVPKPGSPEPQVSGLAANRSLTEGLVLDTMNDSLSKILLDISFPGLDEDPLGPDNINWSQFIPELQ
Assay: co-IP; vector control and Flag-FOXM1A/B/C/D-overexpressing HeLa cells further transfected with HA-p65 or HA-p50 plasmid; anti-Flag or anti-HA antibody; western blot
Settings: remark: other sources report otherwise

- binding: no binding
B1: HA-p50, P19838 1-433 (protein)
chain: MAEDDPYLGRPEQMFHLDPSLTHTIFNPEVFQPQMALPTDGPYLQILEQPKQRGFRFRYVCEGPSHGGLPGASSEKNKKSYPQVKICNYVGPAKVIVQLVTNGKNIHLHAHSLVGKHCEDGICTVTAGPKDMVVGFANLGILHVTKKKVFETLEARMTEACIRGYNPGLLVHPDLAYLQAEGGGDRQLGDREKELIRQAALQQTKEMDLSVVRLMFTAFLPDSTGSFTRRLEPVVSDAIYDSKAPNASNLKIVRMDRTAGCVTGGEEIYLLCDKVQKDDIQIRFYEEEENGGVWEGFGDFSPTDVHRQFAIVFKTPKYKDINITKPASVFVQLRRKSDLETSEPKPFLYYPEIKDKEEVQRKRQKLMPNFSDSFGGGSGAGAGGGGMFGSGGGGGGTGSTGPGYSFPHYGFPTYGGITFHPGTTKSNAGMKHG
